Reference: publication PMC4336329 (PLoS ONE, 2015)
The whole screen tested about 310,000 compounds, of which about 2,200 (0.71%) showed an effect of 50% or more. Effects have a minus sign here. The list shows a part of the results.

target: human ether-à-go-go-related gene (hERG) potassium channel (human, UniProt Q12809); assay: primary screen, population patch clamp on CHO cells stably expressing hERG
Sequence (Q12809 whole entry, looked up): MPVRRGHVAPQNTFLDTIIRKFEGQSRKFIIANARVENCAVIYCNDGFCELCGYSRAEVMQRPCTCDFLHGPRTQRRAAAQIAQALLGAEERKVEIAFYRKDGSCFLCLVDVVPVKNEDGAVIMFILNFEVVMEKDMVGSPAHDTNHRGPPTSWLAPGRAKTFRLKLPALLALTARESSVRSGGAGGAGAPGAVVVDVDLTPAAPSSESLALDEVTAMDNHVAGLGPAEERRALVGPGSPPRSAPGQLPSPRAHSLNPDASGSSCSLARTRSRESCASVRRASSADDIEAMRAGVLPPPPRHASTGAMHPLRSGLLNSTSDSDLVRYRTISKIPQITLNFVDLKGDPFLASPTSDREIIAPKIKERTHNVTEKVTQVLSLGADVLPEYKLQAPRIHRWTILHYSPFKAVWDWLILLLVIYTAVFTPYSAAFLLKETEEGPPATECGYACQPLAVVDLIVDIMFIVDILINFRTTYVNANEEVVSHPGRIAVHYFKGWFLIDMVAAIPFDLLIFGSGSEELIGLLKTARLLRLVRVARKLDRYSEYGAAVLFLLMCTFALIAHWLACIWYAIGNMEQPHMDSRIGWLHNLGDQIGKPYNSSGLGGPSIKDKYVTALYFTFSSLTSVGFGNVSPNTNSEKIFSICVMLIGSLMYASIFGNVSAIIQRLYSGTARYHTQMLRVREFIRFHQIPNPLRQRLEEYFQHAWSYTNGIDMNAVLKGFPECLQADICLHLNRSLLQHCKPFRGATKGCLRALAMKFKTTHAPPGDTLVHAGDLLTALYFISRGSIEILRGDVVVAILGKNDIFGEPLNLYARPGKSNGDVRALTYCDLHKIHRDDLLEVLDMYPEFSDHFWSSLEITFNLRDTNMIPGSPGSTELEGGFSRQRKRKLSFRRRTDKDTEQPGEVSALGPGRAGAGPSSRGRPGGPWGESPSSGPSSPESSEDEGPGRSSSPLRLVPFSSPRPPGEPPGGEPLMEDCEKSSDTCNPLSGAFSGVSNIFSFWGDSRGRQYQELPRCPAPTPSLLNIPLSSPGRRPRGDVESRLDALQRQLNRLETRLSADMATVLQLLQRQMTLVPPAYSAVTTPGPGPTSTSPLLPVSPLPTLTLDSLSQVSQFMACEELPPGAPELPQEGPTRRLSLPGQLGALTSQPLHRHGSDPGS

| SMILES | hERG current change (%, negative = inhibition) at 1uM |
| --- | --- |
| NC(=O)CN1CCOCCOCCOCCOCCOCC1 | 11.9% |
| O=C(NCCC1=CCCCC1)c1coc(=O)c(Br)c1 | -3.36% |
| Cc1c(C(=O)NCC(c2ccco2)N(C)C)oc2c(Cl)cccc12 (centres unmarked) | -1.19% |
| CCCCCCN1CC(O)=C(c2ccccc2)C1=N | -0.417% |
| COc1ccc(F)cc1S(=O)(=O)NC1CCCC1 | 10.9% |
| O=C(O)CCC(=O)NNC(=O)COc1ccc(Cl)cc1Cl | 8.98% |
| C(=C\c1cc(/C=C/c2ccccc2)ncn1)/c1ccccc1 | 21.9% |
| COc1ccccc1CN1C(=O)[C@@H]2Cc3c([nH]c4ccccc34)C(C)(C)N2C1=O | 12.9% |
| CCOC(=O)c1ccccc1N/C=C/C(=O)c1cccs1 | -3.11% |
| COCc1cc(C)nc(Nc2ccccc2OC)c1C#N | 10.7% |
| Cn1c(=O)cc(SCC(=O)NCC2CCCO2)c2ccc(Cl)cc21 (centres unmarked) | 6.95% |
| COc1cccc(NC(=O)CSc2nnc(NC(=O)C3CCC3)s2)c1 | 19.7% |
| COc1cc(S(=O)(=O)NC2CCCCC2C)ccc1Cl (centres unmarked) | 6.21% |
| COCCN(C(=S)Nc1ccc(C)cc1C)C(C)c1ccco1 (centres unmarked) | 5.6% |
| CCCn1c(SCC(=O)Nc2ccccc2Cl)n[nH]c1=O | 1.69% |
| CCOC(=O)c1cc(-c2ccccc2)sc1NC(=O)c1cc(OC)c(OC)c(OC)c1 | 6.59% |
| COc1ccc2c(C)cc3nnnn3c2c1 | 4.58% |
| O=[N+]([O-])c1cc(/C=N/N2CCN(Cc3ccccc3)CC2)ccc1Cl | 8.7% |
| O=C(CN1C(=O)/C(=C/c2ccccc2F)Sc2ccccc21)NCCCN1CCOCC1 | -6.97% |
| Cc1ccc(Cn2nnc3c(=O)[nH]c(C4CCN(S(=O)(=O)Cc5ccccc5)CC4)nc32)cc1 | 10.2% |
| CC(=O)Nc1ccc(-c2nn[nH]n2)cc1Cl | 10.6% |
| Cc1ccc2nc(-c3ccccc3)cc(C(=O)O)c2c1 | 8.03% |
| C=CCC(=O)N1CCCC(CNC(=O)c2ccc(-c3ccccc3)cc2)C1 (centres unmarked) | -0.875% |
| Cc1c(C(=O)Nc2ccc(S(=O)(=O)N(C)C3CCN(C)CC3)cc2)oc2ccccc12 | 3.99% |
| COc1cccc(C2=NOC(C(=O)NCCN3CCOCC3)C2)c1 (centres unmarked) | 6.33% |
| Cn1cc([N+](=O)[O-])c(C(=O)Nc2ccc3nc(-c4ccccc4)[nH]c3c2)n1 | 4.88% |
